Data on 62 molecules can be found in PubChem BioAssay AID1508624 (National Center for Advancing Translational Sciences (NCATS), 2021).

Hit rate of the full screen: of about 48,000 compounds, about 120 (0.25%) were called active. Inconclusive results (about 4%) are left out. Calls come from the whole dose curve; as a rule, active = well fitted activation curve with a large enough effect; inconclusive = small, poorly fitted or top-dose-only effect, or another doubt; inactive = no such curve, though single readings can be large or run the other way. Some of the results follow.

This test is described as follows: Primary qHTS for Identification of Small Molecule Activators of Huntingtin-Antisense Promoter Activity. Note: nearly all actives have a fitted effect of over 55% in size. As to conditions: HEK293 HTT-AS promoter firefly luciferase reporter (activity 0% = vehicle and -100% = no light), 24 h; series mostly up to 57.5 µM; activity change, positive = activation: at the top concentration. Summed up:
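Quantitative HTS used concentration series of up to 57.5 uM final on HEK293 luciferase reporter cells, 24 h at 37 degrees C. Readout was Dual-Glo firefly luminescence.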
In general terms: Quantitative high-throughput screening tests each substance at several concentrations.
Turning to `Cc1cc(C(=O)C(=O)Nc2nnc(C(C)C)s2)c(C)n1-c1ccccc1`, the “activity change, positive = activation” value is inactive: -86.1%. In the case of `CC(C)CCOc1ccccc1Cn1c(=O)sc2ccccc21` it was inactive: -7.58%. In the case of `O=C(NCCCN1CCOCC1)c1ccc(Cl)cc1` it was inactive: 4.15%; in that of `Cc1ccccc1NS(=O)(=O)c1ccc2[nH]c3c(c2c1)CCCCC3`, inactive: -38.2%; in that of `CCOC(=O)c1cc(-c2ccccc2)n(CCC(=O)Nc2nc3c(C)cccc3s2)c1C`, inactive: -30.1%.

For the molecule `CCOc1ccccc1CNC(=O)CCn1ccc2cc(S(=O)(=O)N3CCCCC3)ccc21`, the “activity change, positive = activation” value is inactive: -13.2%. In the case of `CCc1ccc(-n2c(=O)c3c(C)c(C(=O)N(C)C)sc3n(Cc3ccccc3F)c2=O)cc1` it was inactive: -5.13%; in that of `Clc1ccc(C2(c3ccc(-c4cn[nH]c4)cc3)CCNCC2)cc1`, inactive: -33.5%; in that of `Cn1c(=O)c2sccc2n2c(CCCC(=O)Nc3ccc(Oc4ccc(Cl)cc4)cc3)nnc12`, inactive: -27.4%.

With `CC(=O)N1c2c(cc(Br)cc2S(=O)(=O)N2CCN(c3ccccc3)CC2)CC1C` (configuration not stated), the “activity change, positive = activation” value was inactive: -49.6%. The figure for `Cc1ccc(-c2cc3c(N4CCN(c5cc(C)ccc5C)CC4)nccn3n2)cc1` is inactive: -25.5%; for `O=c1c2sccc2n(Cc2cc(=O)n3ccccc3n2)c(=O)n1-c1cccc(C(F)(F)F)c1` it is inactive: -14.5%; for `Cc1ccc2oc(-c3cccc(NC(=O)c4sc5c([N+](=O)[O-])cccc5c4Cl)c3)nc2c1` it is inactive: 16.9%. On to `Cc1cnc(=O)[nH]c1SCC(=O)Nc1nc2ccccc2s1`, for which the “activity change, positive = activation” value is inactive: 23.5%. `Cc1ccc(-c2nnc(SCC(=O)NCc3ccccc3)nc2-c2ccc(C)cc2)cc1`: the “activity change, positive = activation” value was inactive: -38.4%. In the case of `COc1ccccc1N1CCN(C(=O)c2cnc(N3CCCCC3)c3ccccc23)CC1` it was inactive: -39.5%; in that of `CNS(=O)(=O)c1cc(-c2nnc(Nc3cc(C)ccc3C)c3ccccc23)ccc1C`, inactive: -54.9%; in that of `CCOC(=O)c1cnc2ccccc2c1Nc1cccc(OC)c1`, inactive: -31.8%.

For `Cc1cc2c(cc3c(SCC(=O)Nc4cccc(Cl)c4C)nnc(C)n32)o1`, the “activity change, positive = activation” value was inactive: -12.9%. The figure for `CCc1ccc(C(=O)NC(Cc2c[nH]c3ccccc23)C(=O)OCC(=O)c2ccc(Br)cc2)cc1` (configuration not stated) is inactive: -5.59%; for `COc1ccc(/C=C/C(=O)Nc2ccc(Cl)c(Cl)c2)cc1` it is inactive: 24.3%. The figure for `Cc1cc(-c2ccc(C)c(S(=O)(=O)Nc3cccc(C#N)c3)c2)on1` is inactive: -41.8%.

For `CCOc1ccc(CCNC(=O)c2c(C)oc3ncn(C)c(=O)c23)cc1`, the “activity change, positive = activation” value is inactive: 2.92%. Take `O=C(COc1ccc(F)cc1)NCCc1nc2ccccc2[nH]1`: the “activity change, positive = activation” value is inactive: -16%. In the case of `Cc1ccc(Cn2ccnc2SCC(=O)Nc2ccccc2C(F)(F)F)cc1` it was inactive: -4.6%; in that of `COc1ccc(OC)c(NC(=O)CCn2cccn2)c1`, inactive: -1.23%. In the case of `CCCn1c2ccccc2c2cnn(CC(=O)NCc3ccc(OC)cc3)c(=O)c21` it was inactive: -7.07%; in that of `COc1ccccc1CNC(=O)C1CCN(S(=O)(=O)c2ccc3[nH]c(=O)ccc3c2)CC1`, inactive: -2.04%.

In the case of `CCOC(=O)c1ccccc1NC(=O)NCc1cccn1Cc1ccc(F)cc1`, the “activity change, positive = activation” value was inactive: -21.4%. Take `CCc1nn(CC(=O)N2CCN(c3cccc(Cl)c3)CC2)c(=O)c2cc3sccc3n12`: the “activity change, positive = activation” value was inactive: -8.41%.

As for `CCOc1ccc(NC(=O)Cn2c(=O)n(Cc3ccco3)c(=O)c3ccc(C(=O)NC4CCCC4)cc32)cc1`, the “activity change, positive = activation” value is inactive: -17.3%. `O=C(CCC1CCN(Cc2ccccc2)CC1)c1ccc2c(c1)NCCCC2`: the “activity change, positive = activation” value is inactive: -24.4%.

For `O=C1CC(c2cccc(Cl)c2Cl)c2cc3c(cc2N1)OCCO3` (configuration not stated), the “activity change, positive = activation” value was inactive: -37.2%. Regarding `COc1cc(OC)c(NC(=O)Cn2c(SCc3ccccc3F)nc3cccnc32)cc1Cl`, the “activity change, positive = activation” value was inactive: -3.95%. On to `Cc1ccccc1N=Nc1ccc(N=Nc2c(O)ccc3ccccc23)c(C)c1`, for which the “activity change, positive = activation” value is inactive: 18.1%. For the molecule `CCOc1ccc(NC(=O)Cn2nc(SC)c(S(=O)(=O)c3ccccc3)c2N)cc1`, the “activity change, positive = activation” value was inactive: -23.3%. The figure for `CC(=O)c1ccc(N2CCN(c3nc4ccccc4c4nc(-c5cccc(C)c5)nn34)CC2)cc1` is inactive: 5.76%; for `COc1ccc(NC(=O)CN2CCN(CC(=O)Nc3ccccc3F)CC2)cc1OC` it is inactive: -3.33%. The figure for `Cc1oc(-c2ccccc2Cl)nc1CS(=O)CC(=O)NCc1ccccc1Cl` (configuration not stated) is inactive: -9.09%. The figure for `CCOC(=O)c1ccc(NC(=O)COc2cccc3c(=O)n(C)ccc23)cc1` is inactive: -45.2%; for `O=S(=O)(c1ccc(F)cc1)N(Cc1nc(-c2ccccc2)no1)C1CCCCC1` it is inactive: -22.7%; for `Cc1cc(Cl)ccc1OCC(=O)N1CCC(c2nc3ccccc3o2)CC1` it is inactive: -27.6%.

In the case of `O=C(COc1ccc(F)cc1)Nc1ccc(C(=O)OCc2cc(=O)n3nc(C4CC4)sc3n2)cc1`, the “activity change, positive = activation” value is inactive: 3.4%. As for `Cc1ccc(CN(Cc2cccn2-c2nnc(N3CCCC3=O)s2)C(=O)Nc2ccc(F)cc2)cc1`, the “activity change, positive = activation” value was inactive: -5.82%.

`CCOc1ccc(NC(=O)c2sc3nc4c(cc3c2N)CN(Cc2ccccc2)CC4)cc1`: the “activity change, positive = activation” value was inactive: -14.8%. The figure for `Cc1ccc(-n2nc(C(=O)Nc3ccc(Br)cc3C)c(=O)n(C)c2=O)cc1` is inactive: -12.6%; for `COc1ccccc1CNC(=O)CSCc1nc(-c2ccc(OC)c(OC)c2)oc1C` it is inactive: -19.3%; for `COC(=O)c1ccc(NC(=O)C(=O)NCCc2csc(-c3ccc(C(F)(F)F)cc3)n2)cc1` it is inactive: 1.63%.

Consider `O=C(Nc1cccc(C(=O)OCc2cc(=O)n3c4c(sc3n2)CCCC4)c1)c1cccc(Cl)c1`, for which the “activity change, positive = activation” value is inactive: 2.95%. Take `COc1cccc(NC(=O)Cn2nnc(C(=O)NCCc3ccccc3)c2N)c1`: the “activity change, positive = activation” value was inactive: -3.24%. With `Cc1nc(-c2ccc(S(=O)(=O)N(Cc3ccccc3)C(C)C)cc2)co1`, the “activity change, positive = activation” value is inactive: -12.9%. As for `COc1ccc(CCn2c(=O)c3cccnc3n(CC(=O)Nc3ccc(C)cc3C)c2=O)cc1OC`, the “activity change, positive = activation” value is inactive: -7.73%. In the case of `Cn1cc(C(=O)Nc2ccc(C#N)cc2)c2ccccc2c1=O` it was inactive: -29.9%; in that of `O=C(CSc1nc2c([nH]c3ccccc32)c(=O)n1-c1ccc(F)cc1)NCc1ccc(F)cc1`, inactive: -35.8%; in that of `CCOc1ccc(CCNC(=O)c2ccc3c(c2)nc2n3CCOC2)cc1OCC`, inactive: -16.4%.

Take `CC(C)OCCCNC(=O)CCCn1c(SCC(N)=O)nc2c(sc3ccccc32)c1=O`: the “activity change, positive = activation” value was inactive: -4.34%.

With `Cc1ccc(Cl)cc1NC(=O)C1CCN(C(=O)c2cnn(-c3ccccc3)c2-n2cccc2)CC1`, the “activity change, positive = activation” value was inactive: -37.2%. On to `O=C(CCS(=O)(=O)c1nc(-c2cccs2)cc(C(F)(F)F)n1)Nc1ccc(F)c(Cl)c1`, for which the “activity change, positive = activation” value was inactive: -57.1%.

For the molecule `Cc1ccc(NC(=O)C2CCN(S(=O)(=O)c3ccc4c(c3)CCCN4C(=O)C3CCC3)CC2)cc1`, the “activity change, positive = activation” value was inactive: -19.3%. The figure for `O=C(NCCCN1CCCCC1)c1[nH]c2ccccc2c1Sc1ccc(Cl)cc1` is inactive: -21.1%. On to `COC1CCC(C(=O)c2ccc3nc4c(cc3c2)CCCO4)CC1` (configuration not stated), for which the “activity change, positive = activation” value was inactive: -12.9%. The figure for `Cc1cc(C)nc(NS(=O)(=O)c2ccc(NC(=O)c3nc(SC(C)C)ncc3Cl)cc2)n1` is inactive: 0%.
